# Screen size: about 310,000 compounds; about 2,200 (0.71%) showed an effect of 50% or more. The effect is printed as a negative number. Some of the results follow.
# Target: human ether-à-go-go-related gene (hERG) potassium channel (human, UniProt Q12809)
# Experiment: primary screen, population patch clamp on CHO cells stably expressing hERG
# Chain of human ether-à-go-go-related gene (hERG) potassium channel (Q12809 whole entry, looked up): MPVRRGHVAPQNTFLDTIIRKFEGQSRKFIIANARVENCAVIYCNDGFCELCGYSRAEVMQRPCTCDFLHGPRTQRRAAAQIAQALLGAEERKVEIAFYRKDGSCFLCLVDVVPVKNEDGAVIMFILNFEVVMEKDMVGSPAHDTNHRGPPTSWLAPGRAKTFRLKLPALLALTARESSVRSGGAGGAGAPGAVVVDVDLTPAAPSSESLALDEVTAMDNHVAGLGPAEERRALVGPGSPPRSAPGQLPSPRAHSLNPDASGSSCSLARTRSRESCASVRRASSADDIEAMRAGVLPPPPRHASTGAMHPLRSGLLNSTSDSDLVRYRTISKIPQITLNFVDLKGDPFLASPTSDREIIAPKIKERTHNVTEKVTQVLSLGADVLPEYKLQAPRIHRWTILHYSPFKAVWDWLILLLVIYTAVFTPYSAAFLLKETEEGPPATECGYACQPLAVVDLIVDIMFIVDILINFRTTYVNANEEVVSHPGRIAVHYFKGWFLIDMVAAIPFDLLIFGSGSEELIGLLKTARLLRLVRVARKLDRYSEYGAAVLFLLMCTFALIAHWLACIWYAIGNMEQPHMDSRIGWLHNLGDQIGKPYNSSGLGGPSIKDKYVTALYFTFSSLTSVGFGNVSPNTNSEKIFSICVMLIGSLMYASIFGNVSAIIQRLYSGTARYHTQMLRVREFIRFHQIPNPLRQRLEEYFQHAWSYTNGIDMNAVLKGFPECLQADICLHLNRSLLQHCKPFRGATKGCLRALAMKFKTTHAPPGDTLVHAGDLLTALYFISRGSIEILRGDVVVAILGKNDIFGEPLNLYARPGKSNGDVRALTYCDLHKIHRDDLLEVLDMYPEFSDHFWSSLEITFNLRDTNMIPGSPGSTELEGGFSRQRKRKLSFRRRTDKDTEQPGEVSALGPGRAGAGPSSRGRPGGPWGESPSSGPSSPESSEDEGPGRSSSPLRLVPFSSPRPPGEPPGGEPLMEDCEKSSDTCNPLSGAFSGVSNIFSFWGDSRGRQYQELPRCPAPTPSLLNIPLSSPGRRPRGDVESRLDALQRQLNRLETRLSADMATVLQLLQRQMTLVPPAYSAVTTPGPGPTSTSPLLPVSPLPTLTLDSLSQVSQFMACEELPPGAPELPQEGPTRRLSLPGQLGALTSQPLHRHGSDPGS
row,Compound,"hERG current change (%, negative = inhibition) at 1uM"
1,O=C1NCCC/C1=N/Nc1cc(F)ccc1F,0.298%
2,Cc1nc(SCC(=O)NC2CCCCC2C)c(C#N)c(C)c1C (centres unmarked),5.68%
3,CCC1CCCCN1C(=S)NC(=O)c1cc(S(=O)(=O)N2CCOCC2)ccc1C (centres unmarked),6.56%
4,Cc1ccc(S(=O)(=O)N2CCN(S(=O)(=O)N3CCCCC3)CC2)cc1,13.4%
5,CCOc1ccc(N(CC(=O)NC2CCCCC2)C(=O)CCC(=O)Nc2nc(C)cs2)cc1,-20.4%
6,c1ccc(SCCc2ccncc2)cc1,7.49%
7,N#CC1(C#N)COC23CCCCC2C1(C#N)C(=N)O3 (centres unmarked),0.171%
8,CCNC(=O)NC(=O)COc1ccccc1C#N,17.9%
9,COc1ccc(NC(=O)c2ccc(-c3ccc([N+](=O)[O-])cc3)o2)cc1,2.85%
10,COc1ccc(CCNC(=O)c2cc(-c3ccccc3O)n[nH]2)cc1OC,7.83%
11,CCOc1ccccc1NC(=O)CCn1c(=O)oc2ccccc21,-0.089%
12,Fc1ccc(-c2nnc(SCc3ncc(-c4ccccc4)o3)n2CC2CCCO2)cc1 (centres unmarked),-2.66%
13,Cc1ccc(OCC(=O)N/N=C/c2ccncc2)cc1,-7.08%
14,O=C(NC(=O)c1cc(OCC(F)(F)F)ccc1OCC(F)(F)F)Nc1ccccc1,12.4%
15,COC(=O)CCCC(=O)NC1CCCN(C2Cc3ccccc3C2)C1 (centres unmarked),4.05%
16,CS(=O)(=O)NCCSCc1ccc(Cl)cc1,8.46%
17,CCC(C)[C@H]1CNC(=S)N1CCC12CC3CC(CC(C3)C1)C2 (some centres unmarked),12.1%
18,CC1Cc2ccccc2N1S(=O)(=O)c1cccc(C(=O)NCc2ccccn2)c1 (centres unmarked),-29.5%
19,CNC(=O)c1c(NC(=O)c2ccc(N3C(=O)CCC3=O)cc2)sc2c1CCCC2,11.7%
20,COc1ccc(-c2[nH]ncc2CN(C)CCCN2CCOCC2)cc1F,12%
21,CCN(CC)C(=O)Cn1cc(C(=O)C(=O)N2CCc3ccccc32)c2ccccc21,4.22%
22,O=S(=O)(c1ccc2ccccc2c1)N1CCN(C(=S)Nc2ccc(F)c(Cl)c2)CC1,9.17%
23,COc1ccc(S(=O)(=O)N2CCN(C(=O)c3ccc4ccccc4n3)CC2)cc1,4.65%

row,Compound,"hERG current change (%, negative = inhibition) at 1uM"
1,CCN(CC(=O)Nc1cc(Cl)ccc1C)C(=O)CCc1nc2ccccc2c(=O)[nH]1,-32.3%
2,CCc1nonc1NC(=O)c1oc2cc(Br)ccc2c1C,11%
3,N/C(=N\OC(=O)COc1ccccc1)c1cccnc1,6.23%
4,O=C(Nc1nc(-c2cccs2)c(-c2cccs2)s1)C1(c2ccccc2)CC1,1.99%
5,O=C(Nc1cccc(C(F)(F)F)c1)C1CCN(S(=O)(=O)c2ccc(N3CCCC3=O)cc2)CC1,17.9%
6,COc1cc(C=O)ccc1OCCOc1ccccc1[N+](=O)[O-],1.46%
7,CC1(C)NC(=O)N(CCCOc2ccc(Br)cc2Cl)C1=O,6.81%
8,COc1ccc(OC)c(C2CC(=O)Nc3cc(OC)c(OC)c(OC)c32)c1 (centres unmarked),11.8%
9,COCCCn1c(=NC(C)=O)c(C#N)cc2c(=O)n3cccc(C)c3nc21,-7.03%
10,Cc1cc(OCc2cc(C(=O)N(C)CCc3cnn(C)c3)no2)cc(C)c1Cl,3.2%
11,CCOC(=O)C1=C(C)OC(N)=C(C#N)C1c1cccc(C)c1 (centres unmarked),9.21%
12,CCOc1cc(CNCCCN2CCOCC2)cc(Br)c1OCc1ccccc1Cl.Cl,7.29%
13,Cc1nn(C)cc1/C=N/O,-4.44%
14,O=C(O)C(=O)O.c1ccc(COc2cccc(CN3CCc4ccccc4C3)c2)cc1,15.4%
15,Cc1cc(C(=O)NCc2cccnc2)cs1,3.2%
16,O=C(CCC(=O)N1CCCCCC1)Nc1ccc([N+](=O)[O-])cc1,3.73%
17,COc1cc(OC)c2ccc(=O)oc2c1C(CC(=O)N1CCCC1)c1ccc2c(c1)OCO2 (centres unmarked),-1.4%
18,CN(c1ccccc1)S(=O)(=O)c1cccc(NC(=O)CSc2nncn2C)c1,8.81%
19,COc1cc2c(cc1OC)C(c1ccc(O)cc1)NCC2 (centres unmarked),18.4%
20,CCOC(=O)C(C)Sc1nc(C2CC2)cc(C(F)(F)F)c1C#N (centres unmarked),7.62%
21,O=C(CN1CC(c2ccccc2)CC1=O)Nc1ccc2c(c1)OCO2 (centres unmarked),4.85%
22,Cc1ccc(N2CCN(C(=O)c3nn(C)c4c3CS(=O)(=O)c3ccccc3-4)CC2)c(C)c1,14.9%
23,CCCCN(CCCC)C(=O)CSc1nnc(-c2cc(OC)c(OC)c(OC)c2)o1,4.57%

row,Compound,"hERG current change (%, negative = inhibition) at 1uM"
1,Cc1nc2c(-c3ccccc3)c(C)nn2c(C)c1CCC(=O)NCc1ccco1,-20%
2,CN(C(=S)NC(=O)C1(C)CC1(Cl)Cl)c1ccccc1 (centres unmarked),18.3%
3,CCOC(=O)c1ccc(NC(=O)c2nc[nH]c2C(=O)N[C@@H](Cc2ccccc2)C(=O)OC(C)(C)C)cc1,1%
4,COc1ccc(C(=O)OC(C(=O)c2ccc(C)cc2)c2ccccc2)cc1 (centres unmarked),3.56%
5,CCN(CC)CCCNC(=O)c1ccc(CS(=O)(=O)c2ccccc2OC)o1,11.8%
6,COc1ccccc1NC(=O)N(CCCN1CCOCC1)Cc1cc2cc3c(cc2[nH]c1=O)OCO3,8.24%
7,COc1cc(/C=C/C(=O)c2ccc(NS(=O)(=O)c3ccc(C)cc3)cc2)cc(OC)c1O,4.86%
8,Cc1ccc2c(c1)COc1c3ccc(C(=O)NC(C)C)cc3nn1-2,11.1%
9,O=C(Nc1ccc(Nc2ccccc2)cc1)c1cc([N+](=O)[O-])ccc1Cl,9.98%
10,Cc1cc(NS(=O)(=O)c2ccc(NS(=O)(=O)c3cc(C)c(Cl)cc3Cl)cc2)no1,12.3%
11,O=C(O)C1C2C=CC3(CN(C/C=C/c4ccccc4)C(=O)C13)O2 (centres unmarked),13.3%
12,Cc1nn(C)c(C)c1S(=O)(=O)NCCc1ccc(Cl)cc1,8.73%
13,CC/C(=N/N=C(/CC)c1ccc(O)cc1)c1ccc(O)cc1,4.16%
14,CC(=O)N1CCOc2ccc(S(=O)(=O)N3CCC(C(=O)NCc4ccc(F)cc4)CC3)cc21,10%
15,Cc1ccc(-n2c(=O)c(C#N)cc3c(=O)n4ccccc4nc32)cc1C,9.23%
16,CC1CCN(S(=O)(=O)c2ccc3ccccc3c2)CC1,23.5%
17,CC(=O)Nc1c(C(=O)c2ccc(F)cc2)oc2ccccc12,3.94%
18,CCCCOCCCNC(=O)N[C@H](C(=O)OC)C(C)C,11.1%
19,CCc1ccccc1N=C1SCC(=O)N1C,8.54%
20,COc1ccc(NC(=S)Nn2cnnc2)cc1OC,9.82%
21,CC(Sc1ccc(S(=O)(=O)N2CCOCC2)cn1)C(=O)Nc1ccc(Cl)cc1Cl (centres unmarked),-29.3%
22,Cc1onc(-c2ccccc2)c1C(=O)Nc1ccnn1C1CCCCC1,-3.97%
23,CC(=O)c1nc2ccccc2n1Cc1ccccc1,9.31%

row,Compound,"hERG current change (%, negative = inhibition) at 1uM"
1,CC(=O)Oc1ccc(/C=C2/CCc3ccccc3C2=O)cc1,11.9%
2,CCC(=O)Nc1cccc(C2=NOC3(C2)C[C@@H](C(N)=O)N(C(=O)CC)C3)c1 (some centres unmarked),13%
3,O=C(CSc1nnnn1-c1ccccc1)Nc1ccc(N2CCOCC2)cc1,-3.69%
4,Cc1cc(=O)n2nc(N3CCCC(C(=O)N4CCN(c5ccccc5)CC4)C3)sc2n1 (centres unmarked),-21.7%
5,CCCCC12CN3CC(C)(CN(C1)C31C(=O)N(C)c3ccc(C)cc31)C2=O (centres unmarked),-5.21%
6,COc1ccccc1N1CCN(S(=O)(=O)c2ccc(-c3cnc(C4CC4)o3)cc2)CC1,14%
7,O=C(NCCN1CCOCC1)N1c2ccccc2Sc2ccccc21,13.7%
8,CCOc1cccc(C(=O)Nc2cccc(NC(=O)c3ccco3)c2)c1,0.329%
9,Cl.c1coc(CNc2nc(N3CCCCC3)nc3ccccc23)c1,-80.8%
10,COc1nc(-c2ccccc2)ccc1-c1noc(-c2cccnc2)n1,10.7%
11,CCCN1C(=O)c2ccc(C(=O)Nc3nccs3)cc2C1=O,-1.84%
12,COc1cc(CCC(=O)OCC(=O)Nc2nc(C)c(Cl)cc2Cl)cc(OC)c1OC,7.43%
13,Brc1ccc(CN2CCCCCC2)cc1,-1.78%
14,CCC(C)c1ccccc1N1CC(C(=O)Nc2ccc(S(=O)(=O)N3CCOCC3)cc2)CC1=O (centres unmarked),2.8%
15,O=C(NNC(=O)c1ccc(Br)s1)c1csc(N2CCOCC2)n1,14%
16,CCOC(=O)N1CCC(=NNC(=O)NC2CCCCC2)CC1,10.6%
17,COC(=O)C1=C(C)N(C)C(C)=C(C(=O)OC)C1c1ccc(F)c(Br)c1,6.36%
18,O=C(/C(=C/O)N=Nc1ccccc1Cl)c1ccccc1,18.7%
19,COc1ccc(Cl)cc1Nc1nc(NCCO)nc(N2CCCC2)n1,10.3%
20,Cc1ccc(Cl)c2c1NC(=O)C2(O)CC(=O)c1ccc(Br)cc1 (centres unmarked),6.68%
